Laboratory results reported in patent publication US5206254A, “β-carbonyl-carboxyamides of 1,3-thiazolidines” (Boehringer Mannheim Italia S.p.A., priority 1988, dated 1993).

Test system: cough strokes induced by exposure to citric acid aerosol
Assay: Protection against cough strokes induced by 7.5% citric acid aerosol (Charlier et al.)
Conditions: for long lasting percent reduction (of cough strokes): subcutaneous, 60 mg/Kg; for Percent reduction cough strokes: 30 mg/Kg os, exposure one hour after drug

Work on `COc1ccc2c3c1O[C@H]1[C@@H](O)C=C[C@H]4[C@@H](C2)N(C)CC[C@@]341` [Codeine phosphate, reference compound] yielded an ED50 (Cavia porcellus, po) of 30 mg/kg.
`COc1ccccc1OCC1SCCN1C(=O)CC(=O)O` (racemic) [Compound 10, (R,S)-2-(2-methoxy-phenoxymethyl)-3-carboxyacetyl-1,3-thiazolidine] was tested, and the “long lasting percent reduction (of cough strokes)” value was 83%.
`COc1ccccc1OCC1SCCN1C(=O)CC(=O)NCc1cccnc1` (stereo not shown) [Compound 14] was tested, and the ED50 (Cavia porcellus, po) was 14 mg/kg.
In the case of “(R,S)-2-(2-methoxy-phenoxymethyl)-3-ethoxycarbonylacetyl-1,3-thiazolidine [Compound 7]”, the “Percent reduction cough strokes” value is reported as 51% and the “long lasting percent reduction (of cough strokes)” value is reported as 90%.
In the case of “(R,S)-2-(2-methoxy-phenoxymethyl)-3-(3-oxo-butanoyl)-1,3-thiazolidine [Compound 6]”, the “Percent reduction cough strokes” value is reported as 45% and the ED50 (os, citric acid aerosol (Table I)) is reported as 30 mg/kg.
